# Laboratory results published in the BET-seq Pho4 binding data (Le et al. 2018).
# The list shows a part of the results. Values were computed here from the reads of four pooled replicates and scatter widely.
# Target: T1, Pho4 (S. cerevisiae) (UniProt P07270)
# T1 sequence: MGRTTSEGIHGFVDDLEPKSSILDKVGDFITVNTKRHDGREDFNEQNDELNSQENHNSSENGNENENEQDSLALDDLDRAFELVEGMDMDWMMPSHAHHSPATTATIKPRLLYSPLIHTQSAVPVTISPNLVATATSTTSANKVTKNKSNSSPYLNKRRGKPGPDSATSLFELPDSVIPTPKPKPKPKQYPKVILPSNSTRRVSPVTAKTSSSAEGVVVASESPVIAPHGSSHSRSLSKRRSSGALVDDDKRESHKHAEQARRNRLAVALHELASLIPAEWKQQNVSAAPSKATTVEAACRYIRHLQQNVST
# Experiment: relative binding free energy (BET-seq); higher = weaker binding
# Conditions: reference: library average
row,Sequence,relative binding free energy
1,TGGTCCACGTGGGCGG,-0.07 kcal/mol
2,AGTTACACGTGTGTTC,0 kcal/mol
3,AGTCACACGTGTTGTG,-0.06 kcal/mol
4,TGTTTCACGTGGCGTT,0.23 kcal/mol
5,TATTTCACGTGTTCGT,0.27 kcal/mol
6,GTTTGCACGTGCGGCC,0.15 kcal/mol
7,GGACTCACGTGGGTGT,0.11 kcal/mol
8,AGTTACACGTGTGCGT,-0.06 kcal/mol
9,GTGGTCACGTGTAATA,0.25 kcal/mol
10,TAGATCACGTGTTATC,0.3 kcal/mol
11,TTGAGCACGTGTGCTG,-0.1 kcal/mol
12,AATTTCACGTGGATGC,0.31 kcal/mol
13,GCGGTCACGTGTGTTA,0.13 kcal/mol
14,AATGTCACGTGGGGGC,-0.05 kcal/mol
15,GTTTGCACGTGGCCTG,-0.13 kcal/mol
16,AATGACACGTGGTATA,-0.06 kcal/mol
17,CAAAGCACGTGGGGGT,-0.16 kcal/mol
18,AGTTCCACGTGTGTAG,0.11 kcal/mol
19,TAATGCACGTGTTTCT,-0.04 kcal/mol
20,AGTGGCACGTGTGTTC,0.01 kcal/mol
21,TTGGACACGTGGCAAG,-0.07 kcal/mol

row,Sequence,relative binding free energy
1,TTCTGCACGTGGGGTT,-0.16 kcal/mol
2,GGGCGCACGTGTGTAT,0.01 kcal/mol
3,TAGGACACGTGGTCCG,0.06 kcal/mol
4,GCTGGCACGTGTTTAT,-0.07 kcal/mol
5,TTGTGCACGTGGGGCC,-0.17 kcal/mol
6,CTATGCACGTGCGTTG,-0.07 kcal/mol
7,CGGTTCACGTGGCGTA,0.12 kcal/mol
8,TATGGCACGTGGGCTA,-0.24 kcal/mol
9,GGGTACACGTGTTTCG,0.15 kcal/mol
10,AAGTGCACGTGTGAGT,0 kcal/mol
11,TGGCGCACGTGAGTGC,0.24 kcal/mol
12,GGTGCCACGTGTGAGT,0.04 kcal/mol
13,TGCATCACGTGAAGGT,0.42 kcal/mol
14,GGAGCCACGTGCGTGT,-0.06 kcal/mol
15,ATTATCACGTGCATGG,0.08 kcal/mol
16,GGGGTCACGTGATCTT,0.2 kcal/mol
17,AAGGCCACGTGTCGGA,0.16 kcal/mol
18,GCGGGCACGTGTAGTG,0 kcal/mol
19,GTGATCACGTGAATTT,0.49 kcal/mol
20,GGTGACACGTGGGAGG,-0.02 kcal/mol
21,ATTGGCACGTGAAGTT,0.22 kcal/mol

row,Sequence,relative binding free energy
1,GGCATCACGTGTGCGT,0.21 kcal/mol
2,GTGGTCACGTGAGTTG,0.34 kcal/mol
3,CGGTACACGTGTGATT,0.15 kcal/mol
4,TGTTTCACGTGTATAA,0.22 kcal/mol
5,GGTCTCACGTGGTTTA,0.23 kcal/mol
6,TTGCCCACGTGGGGTG,-0.21 kcal/mol
7,TCTGGCACGTGTGTAT,-0.01 kcal/mol
8,TGCCGCACGTGTGAGG,-0.08 kcal/mol
9,TTTGTCACGTGGGGCT,-0.01 kcal/mol
10,CTGGTCACGTGTTTAT,0 kcal/mol
11,GGGTCCACGTGGGTCG,-0.2 kcal/mol
12,GCGAGCACGTGCGGGG,-0.24 kcal/mol
13,TGGTACACGTGCTAGT,-0.03 kcal/mol
14,TGTTGCACGTGGGGTG,-0.13 kcal/mol
15,GGAAGCACGTGGGTAA,-0.34 kcal/mol
16,TAGGGCACGTGGAACT,-0.07 kcal/mol
17,GAGTGCACGTGGTATT,-0.03 kcal/mol
18,GTTGTCACGTGTGGAT,0.2 kcal/mol
19,GTTGTCACGTGCTTCT,0.14 kcal/mol
20,TGTTTCACGTGCGGGT,0.28 kcal/mol
21,TGTGGCACGTGGAGTA,-0.11 kcal/mol
